# This is one part of the list. The full chains were built here from the parent and the listed change. Values near 0.05 are background.
# B1: TEV protease; numbered along this chain (parent)
# chain: MGESLFKGPRDYNPISSSICHLTNESDGHTTSLYGIGFGPFIITNKHLFRRNNGTLVVQSLHGVFKVKDTTTLQQHLVDGRDMIIIRMPKDFPPFPQKLKFREPQREERICLVTTNFQTKSMSSMVSDTSCTFPSGDGIFWKHWIQTKDGQCGSPLVSTRDGFIVGIHSASNFTNTNNYFTSVPKNFMELLTNQEAQQWVSGWRLNADSVLWGGHKVFMVKPEEPFQPVKEATQL
# Variants of: B1
# Assay: raw area under fraction-flipped curve 0-4 h after induction (AUC4h, not background-subtracted), DNA-recorder readout of cleavage of the substrate (dimensionless); higher = more cleavage of the substrate by the protease variant
# Conditions: temperature: 34 °C; time window: 0-4 h after rhamnose induction
# Protocol: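 In vivo DNA recorder in E. coli TOP10(DE3) ΔrhaA at 34 °C. Each TEVp single-site mutant (parent TEVp 0) is paired with a single-site variant of the 7-mer TEVs (canonical ENLYFQ|S). The substrate sits between flexible linkers in a Bxb1-sfGFP-TEVs-SsrA fusion, so cleavage stabilises Bxb1 and speeds flipping of a recombination array, read by NGS. The value is the raw area under the fraction-flipped curve over 0-4 h after rhamnose induction (AUC4h), with ≥20 reads per time point. It is not background-subtracted; inactive controls average about 0.047.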
# 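Note: Bxb1 expression induced with 0.2% (w/v) L-rhamnose at OD600 near 0.5, cultures sampled hourly, flipped fraction per protease–substrate barcode pair counted by paired-end Illumina sequencing.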
Variant,area with substrate ENLYFQA,area with substrate ENLYFQC,area with substrate ENLYFQD,area with substrate ENLYFQF,area with substrate ENLYFQI,area with substrate ENLYFQL,area with substrate ENLYFQN,area with substrate ENLYFQR,area with substrate ENLYFQS,area with substrate ENLYFQT,area with substrate ENLYFQV,area with substrate ENLYFQW,area with substrate ENLYFQY,area with substrate ENLYFQH,area with substrate ENLYFQE,area with substrate ENLYFQK,area with substrate ENLYFQM,area with substrate ENLYFQP,area with substrate ENLYFQG,area with substrate ENLYFQQ
L190K,0.104,0.1,0.0703,0.0645,0.0522,0.063,0.0781,0.054,0.103,0.0608,0.0625,0.0608,0.0738,,,,,,,
L190V,0.0927,0.14,0.0485,,,,0.0428,0.0515,0.11,,0.0615,0.0764,,0.0827,,,,,,
N178P,0.0613,,,0.0545,,0.0477,0.0657,0.0503,0.0705,0.0602,,,,,0.0394,0.0738,0.0537,0.0449,,
N178L,0.0782,0.118,,0.0888,,,0.0789,,0.117,,,0.0774,,0.104,0.0868,0.0687,0.151,0.0446,,
S169V,0.0556,0.0709,,,0.0659,,0.081,0.0588,0.0728,0.0518,0.055,0.0429,0.0567,,,0.0753,0.0364,0.032,,
S169H,0.0396,0.0531,,0.0488,0.0597,0.0635,0.0246,0.0651,0.0552,,,0.0571,0.0427,,,0.0646,0.0509,0.0462,0.0518,
S169L,0.0688,0.0538,,,0.0645,0.0592,,,0.0593,0.0614,,0.0485,0.061,0.0665,,0.0571,,,0.0538,
T181W,0.0667,0.0508,0.0369,,0.0619,0.0543,0.0528,0.0675,0.0587,,0.05,,,,,0.0702,0.0463,,,
K185R,0.118,0.0851,,0.0801,0.0615,,0.0668,0.0526,0.105,0.0638,,0.0564,0.0702,,,0.08,,,,0.0757
F173P,0.0862,0.0999,,,,0.0535,0.0557,0.0515,0.0856,,0.0626,,0.058,0.078,,,,,,0.0491
G162Q,0.0842,0.0928,0.0621,0.0615,,0.0594,0.087,0.0777,0.0995,0.0536,0.0545,0.0619,0.0655,,,0.0687,0.0828,,0.103,0.077
G162Y,0.0986,0.0835,0.0511,,,0.0557,,0.0547,0.0819,0.06,0.0593,,0.0684,0.0722,,0.0604,0.0483,0.0506,,0.0877
G162T,0.0886,0.118,,0.0752,0.0381,0.0554,0.0664,,0.0907,,,,0.0739,,,,0.0772,,0.0755,
I167Q,0.06,0.0631,,0.134,0.0423,,,,0.0779,0.0452,,,,,,,,0.0535,0.0785,
I167P,0.0618,0.0497,,,0.0509,0.0585,0.0509,0.0473,0.0511,,0.034,0.0444,0.0488,0.051,0.0437,,0.0519,,,
I167L,0.094,0.177,,0.0723,,0.0417,0.0695,0.0541,0.109,,0.0607,0.0629,0.0757,0.0871,,0.0348,0.0841,,0.104,0.0619
F187S,0.0644,,,,0.0628,0.056,0.0494,0.0546,0.0632,0.0631,,0.0563,0.0593,,,,0.0656,0.058,0.0799,0.0324
Y179H,0.064,0.0574,,,,0.0565,,0.0587,0.0598,0.0557,,0.0627,0.0641,0.0551,0.0745,,,0.0344,0.072,
Y179G,0.0565,,,,,,,,0.0536,,,,,,,0.0561,,0.0524,0.0651,
A170L,0.056,0.0601,,,,0.0623,0.0133,,0.0634,0.0655,,0.0603,0.0577,,,,,0.0532,0.0515,
N177W,0.0641,0.0691,,,0.069,0.0584,0.0564,,0.0753,0.0559,,0.0776,,,,,,,0.0422,
N177F,0.0802,,0.0603,0.0658,0.0536,0.0567,0.0634,0.0574,0.0793,0.0625,0.0509,0.0539,0.0304,,0.0587,0.0621,,0.064,0.0671,
M188F,0.0844,0.128,0.0543,,,0.0669,0.0404,0.0576,0.0984,,,0.0398,,0.0819,,0.0547,,0.0622,,0.068
M188K,0.0792,0.144,,,0.0559,0.0593,0.0584,0.0571,0.101,0.0685,0.0654,0.0395,0.0797,0.074,,0.0584,0.0905,,0.105,
M188G,0.143,0.116,,,0.0491,0.0703,0.0822,0.0055,0.1,0.0785,,0.0578,,,0.0683,0.0614,0.0866,0.0407,,0.0778
G166H,0.0479,0.0524,0.0431,0.0425,0.0506,0.0478,0.0797,0.058,0.0513,0.0463,0.0538,0.0476,,,,0.0591,,,0.0803,0.0699
F163C,0.093,,,,,0.0709,,,0.11,0.0758,,,,,,,,,,
V165K,0.0536,0.0462,,0.049,0.0539,0.0645,0.057,0.0536,0.056,0.0586,0.049,,0.044,,,0.0437,0.0571,0.0606,,0.0563
V165H,0.0538,0.0839,,,,0.0577,0.043,0.0388,0.0542,0.0544,0.0457,,,,,,0.0479,,,

# From the supplement of paper PMC12217912
